The results in this text go back to publication PMC12210021.

For test [1], the target named is T1, NLRP6 (endogenous, mouse primary IECs) (mouse (endogenous in primary IECs from mouse intestinal organoids)) (UniProt Q91WS2).
T1 sequence: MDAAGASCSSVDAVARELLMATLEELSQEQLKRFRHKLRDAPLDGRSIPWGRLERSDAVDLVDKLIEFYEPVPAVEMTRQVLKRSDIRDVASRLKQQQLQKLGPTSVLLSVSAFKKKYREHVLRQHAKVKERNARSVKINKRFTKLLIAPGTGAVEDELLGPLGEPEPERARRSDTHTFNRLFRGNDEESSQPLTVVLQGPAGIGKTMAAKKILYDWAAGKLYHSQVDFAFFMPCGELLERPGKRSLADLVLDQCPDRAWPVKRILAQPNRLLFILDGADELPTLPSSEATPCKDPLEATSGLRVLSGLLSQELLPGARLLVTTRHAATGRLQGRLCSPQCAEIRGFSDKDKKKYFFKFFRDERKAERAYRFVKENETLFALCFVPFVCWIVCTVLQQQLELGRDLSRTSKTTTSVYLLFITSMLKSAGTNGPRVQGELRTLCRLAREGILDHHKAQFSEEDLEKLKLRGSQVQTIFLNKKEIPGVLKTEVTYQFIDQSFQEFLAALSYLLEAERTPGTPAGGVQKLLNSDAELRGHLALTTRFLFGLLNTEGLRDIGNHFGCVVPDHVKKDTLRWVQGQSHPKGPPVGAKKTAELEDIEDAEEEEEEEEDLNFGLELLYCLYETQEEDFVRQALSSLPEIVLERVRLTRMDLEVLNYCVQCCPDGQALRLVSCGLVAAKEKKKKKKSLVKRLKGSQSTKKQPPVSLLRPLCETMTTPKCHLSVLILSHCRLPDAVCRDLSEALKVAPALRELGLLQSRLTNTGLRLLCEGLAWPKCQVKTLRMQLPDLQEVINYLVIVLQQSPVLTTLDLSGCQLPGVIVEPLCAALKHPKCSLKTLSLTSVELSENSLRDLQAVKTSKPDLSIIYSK
Description: co-IP; endogenous proteins; anti-TRIM29 (or anti-NLRP6) antibody and protein A/G agarose beads from whole-cell lysates of primary IECs from mouse intestinal organoids infected with EMCV or Rotavirus at MOI of 5 for 4 h, then MG132 (5 uM) for 3 h; lysis buffer 50 mM Tris-Cl pH 7.5, 1 mM EDTA, 150 mM NaCl, 1.0 % NP-40; control IgG.

Test [2] addresses T2, TRIM29 (endogenous, mouse primary IECs) (mouse (endogenous in primary IECs from mouse intestinal organoids)) (UniProt Q8R2Q0).
T2 sequence: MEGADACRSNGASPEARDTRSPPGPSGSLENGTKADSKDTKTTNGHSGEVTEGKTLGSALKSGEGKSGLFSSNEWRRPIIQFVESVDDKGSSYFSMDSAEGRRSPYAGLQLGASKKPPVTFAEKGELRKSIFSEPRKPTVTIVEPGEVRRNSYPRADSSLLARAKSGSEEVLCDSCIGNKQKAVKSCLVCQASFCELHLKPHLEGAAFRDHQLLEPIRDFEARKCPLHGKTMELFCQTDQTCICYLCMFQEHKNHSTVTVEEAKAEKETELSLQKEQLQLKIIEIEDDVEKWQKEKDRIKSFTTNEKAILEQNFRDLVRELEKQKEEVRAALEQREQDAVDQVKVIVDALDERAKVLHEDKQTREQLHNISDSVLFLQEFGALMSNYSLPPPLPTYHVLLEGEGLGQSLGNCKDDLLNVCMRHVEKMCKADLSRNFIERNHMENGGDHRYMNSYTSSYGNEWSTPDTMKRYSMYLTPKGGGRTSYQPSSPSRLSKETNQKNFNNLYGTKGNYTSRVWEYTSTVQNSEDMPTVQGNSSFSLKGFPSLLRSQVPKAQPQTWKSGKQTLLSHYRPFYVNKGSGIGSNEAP
Description: co-IP; endogenous proteins; anti-TRIM29 antibody and protein A/G agarose beads from whole-cell lysates of primary IECs from mouse intestinal organoids without infection (Mock), MG132 (5 uM) before lysis.

In test [3] the target is T2, TRIM29 (endogenous, mouse primary IECs) (mouse (endogenous in primary IECs from mouse intestinal organoids)). Description: co-IP; endogenous proteins; anti-TRIM29 (or anti-NLRP6) antibody and protein A/G agarose beads from whole-cell lysates of primary IECs from mouse intestinal organoids infected with EMCV or Rotavirus at MOI of 5 for 4 h, then MG132 (5 uM) for 3 h; lysis buffer 50 mM Tris-Cl pH 7.5, 1 mM EDTA, 150 mM NaCl, 1.0 % NP-40; control IgG.

No constants are given. Whether binding was seen depends on the method and setting. In cells and extracts the contact can be indirect. Some results given as binding are weak or reduced against the parent protein; the word gives no strength.

B1: TRIM29 (endogenous, mouse primary IECs) (protein, UniProt Q8R2Q0 1-587)
chain: MEGADACRSNGASPEARDTRSPPGPSGSLENGTKADSKDTKTTNGHSGEVTEGKTLGSALKSGEGKSGLFSSNEWRRPIIQFVESVDDKGSSYFSMDSAEGRRSPYAGLQLGASKKPPVTFAEKGELRKSIFSEPRKPTVTIVEPGEVRRNSYPRADSSLLARAKSGSEEVLCDSCIGNKQKAVKSCLVCQASFCELHLKPHLEGAAFRDHQLLEPIRDFEARKCPLHGKTMELFCQTDQTCICYLCMFQEHKNHSTVTVEEAKAEKETELSLQKEQLQLKIIEIEDDVEKWQKEKDRIKSFTTNEKAILEQNFRDLVRELEKQKEEVRAALEQREQDAVDQVKVIVDALDERAKVLHEDKQTREQLHNISDSVLFLQEFGALMSNYSLPPPLPTYHVLLEGEGLGQSLGNCKDDLLNVCMRHVEKMCKADLSRNFIERNHMENGGDHRYMNSYTSSYGNEWSTPDTMKRYSMYLTPKGGGRTSYQPSSPSRLSKETNQKNFNNLYGTKGNYTSRVWEYTSTVQNSEDMPTVQGNSSFSLKGFPSLLRSQVPKAQPQTWKSGKQTLLSHYRPFYVNKGSGIGSNEAP
Consider B1, for which the binding result in test [1] is “binds”.

B2: NLRP6 (endogenous, mouse primary IECs) (protein, UniProt Q91WS2 1-869)
chain: MDAAGASCSSVDAVARELLMATLEELSQEQLKRFRHKLRDAPLDGRSIPWGRLERSDAVDLVDKLIEFYEPVPAVEMTRQVLKRSDIRDVASRLKQQQLQKLGPTSVLLSVSAFKKKYREHVLRQHAKVKERNARSVKINKRFTKLLIAPGTGAVEDELLGPLGEPEPERARRSDTHTFNRLFRGNDEESSQPLTVVLQGPAGIGKTMAAKKILYDWAAGKLYHSQVDFAFFMPCGELLERPGKRSLADLVLDQCPDRAWPVKRILAQPNRLLFILDGADELPTLPSSEATPCKDPLEATSGLRVLSGLLSQELLPGARLLVTTRHAATGRLQGRLCSPQCAEIRGFSDKDKKKYFFKFFRDERKAERAYRFVKENETLFALCFVPFVCWIVCTVLQQQLELGRDLSRTSKTTTSVYLLFITSMLKSAGTNGPRVQGELRTLCRLAREGILDHHKAQFSEEDLEKLKLRGSQVQTIFLNKKEIPGVLKTEVTYQFIDQSFQEFLAALSYLLEAERTPGTPAGGVQKLLNSDAELRGHLALTTRFLFGLLNTEGLRDIGNHFGCVVPDHVKKDTLRWVQGQSHPKGPPVGAKKTAELEDIEDAEEEEEEEEDLNFGLELLYCLYETQEEDFVRQALSSLPEIVLERVRLTRMDLEVLNYCVQCCPDGQALRLVSCGLVAAKEKKKKKKSLVKRLKGSQSTKKQPPVSLLRPLCETMTTPKCHLSVLILSHCRLPDAVCRDLSEALKVAPALRELGLLQSRLTNTGLRLLCEGLAWPKCQVKTLRMQLPDLQEVINYLVIVLQQSPVLTTLDLSGCQLPGVIVEPLCAALKHPKCSLKTLSLTSVELSENSLRDLQAVKTSKPDLSIIYSK
Turning to B2, the binding result is reported as “no binding (condition: without infection (Mock))” in test [2] and “binds” in test [3].

B3: NLRP9b (endogenous, mouse primary IECs) (protein, UniProt Q66X22 1-1003)
chain: MAGSSGYGLLKLLQKLSDEEFQRFKELLREEPEKFKLKPISWTKIENSSKESLVTLLNTHYPGQAWNMMLSLFLQVNREDLSIMAQKKKRHKQTKYKKFMKTTFERIWTLETNTHIPDRNYHLIVEVQYKALQEIFDSESEPVTAIVAGTTGEGKTTFLRKAMLDWASGVLLQNRFQYVFFFSVFSLNNTTELSLAELISSTLPESSETVDDILSDPKRILFILDGFDYLKFDLELRTNLCNDWRKRLPTQIVLSSLLQKIMLPGCSLLLELGQISVPKIRHLLKYPRVITMQGFSERSVEFYCMSFFDNQRGIEVAENLRNNEVLHLCSNPYLCWMFCSCLKWQFDREEEGYFKAKTDAAFFTNFMVSAFKSTYAHSPSKQNRARLKTLCTLAVEGMWKELFVFDSEDLRRNGISESDKAVWLKMQFLQTHGNHTVFYHPTLQSYFAAMFYFLKQDKDICVPVIGSIPQLLGNMYARGQTQWLQLGTFLFGLINEQVAALLQPCFGFIQPIYVRQEIICYFKCLGQQECNEKLERSQTLFSCLRDSQEERFVRQVVDLLEEITVDISSSDVLSVTAYALQKSSKLKKLHLHIQKTVFSEIYCPDHCKTRTSIGKRRNTAEYWKTLCGIFCNLYVLDLDSCQFNKRAIQDLCNSMSPTPTVPLTAFKLQSLSCSFMADFGDGSLFHTLLQLPHLKYLNLYGTYLSMDVTEKLCAALRCSACRVEELLLGKCGISSKACGIIAISLINSKVKHLSLVENPLKNKGVMSLCEMLKDPSCVLQSLMLSYCCLTFIACGHLYEALLSNKHLSLLDLGSNFLEDTGVNLLCEALKDPNCTLKELWLPGCFLTSQCCEEISAVLICNRNLKTLKLGNNNIQDTGVRQLCEALSHPNCNLECLGLDLCEFTSDCCKDLALALTTCKTLNSLNLDWKTLDHSGLVVLCEALNHKRCNLKMLGLDKSAFSEESQTLLQDVEKKNNNLNILHHPWFEAERNKRGTRLVWNSRN
Turning to B3, the binding entry in test [2] is reported as “no binding (condition: without infection (Mock))”; in test [3], “binds”.
